± gives the standard deviation of the averaged measurements. The list shows a part of the results.
tested on: PfAP2-LT AP2 domain (GST-tagged); test: gcPBM binding intensity (ln(normalized median fluorescence intensity)); higher = stronger DNA binding
How it was run: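 Binding of GST-tagged P. falciparum DNA-binding domains, expressed in E. coli and used at about 25 μg on average, was carried out for 1 h in 1× PBS containing 1% milk, 0.2 mg/ml BSA, 0.5% salmon testes DNA and 0.03% Triton X-100. The target was an Agilent 4 × 180k array of primer-extended double-stranded 36-bp intergenic genomic probes plus negative controls, read with Alexa488 anti-GST antibody at 488 nm. Binding intensity is the highest Masliner-normalised natural-log median intensity across replicate spots of either probe orientation.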

Compared with “TTGTTTTTTTTTTCTATAAGCATAAAAATGATATAA [XGTACX_negctrl_site356]”, “TTTCTGTGTTTTGGTTGTACACACGCTACATTATAT [XGTACX_site5669]” is higher in “gcPBM binding intensity (ln)” value: 8.09 ± 0.35 for the first, 9.6 ± 0.39 for the second.

“TTTATTTATTATTAAAGTACTAAATCATATAATTAT [XGTACX_site5727]” and “AAATTAAAAAAATAATGTACATGTATTTATTATGTA [XGTACX_site2419]” are within error of each other in “gcPBM binding intensity (ln)” value: 8.26 ± 0.51 for the first, 8.74 ± 0.42 for the second.

“TTTTATTTCTTTGCACCATTTTAAATACAAACAAAT [CACACA_negctrl_site1553]” and “AGTATTCACTTAATATGTACATATTTATTATAAGAG [XGTACX_site3434]” are within error of each other in “gcPBM binding intensity (ln)” value: 8.56 ± 0.43 for the first, 8.63 ± 0.4 for the second.

“GCTTTTAAAATAATTGGTACACATGTATAAATTCAA [XGTACX_site2327]” and “TAAAACAATACTTTGTGCTTCTCTGGTTTTTTTTTT [GTGCAC_negctrl_site284]” are within error of each other in “gcPBM binding intensity (ln)” value: 8.69 ± 0.46 for the first, 8.62 ± 0.46 for the second.

Going from “CACAAAAAGAAACACACACACATATATATATATATA [CACACA_site999]” to “ATTCTAAATAATAAGAGTACAAATAATATGGAGAAG [XGTACX_site5209]”, the “gcPBM binding intensity (ln)” value falls from 10 ± 0.37 to 8.84 ± 0.38.

“TGCTCATTCCTGTCATGTACATATTATATATATATA [XGTACX_site6890]” and “GAAAATATGTAATAGTGTACACATATATATGTATAT [XGTACX_site306]” are within error of each other in “gcPBM binding intensity (ln)” value: 9.14 ± 0.33 for the first, 9.07 ± 0.36 for the second.

“ATATGAACATTTACATGTACATGTAAATGTAACACT [XGTACX_site4574]” and “CCCGTAAATTATGAGTGTACGTTATTTTTTAAAATG [XGTACX_site3946]” are within error of each other in “gcPBM binding intensity (ln)” value: 8.98 ± 0.34 for the first, 8.69 ± 0.4 for the second.

“ACATATACATATATATGTACATAAATATATATATAT [XGTACX_site8630]” and “AATTATATATTTGAGAGTACATATGTAATGTTTATA [XGTACX_site6970]” are within error of each other in “gcPBM binding intensity (ln)” value: 9.06 ± 0.31 for the first, 8.79 ± 0.42 for the second.

“GTGCATATCTGATATACACACAATAAAATAGTATGT [CACACA_site7203]” and “CATATATTATTTATACGTACTAATAAAATAAATCAA [XGTACX_site1030]” are within error of each other in “gcPBM binding intensity (ln)” value: 9.19 ± 0.4 for the first, 8.62 ± 0.45 for the second.

“TATGATACATAAATATGTACGTATAATATATATTTA [XGTACX_site7002]” and TGCAAGCTTATATAGGTGCACATGTATACGTGTTCA are within error of each other in “gcPBM binding intensity (ln)” value: 8.78 ± 0.36 for the first, 9.24 ± 0.34 for the second.

Going from “TATTAAAATTAAAAAAAAAAAAAAAAGCAATAAAAA [XGTACX_negctrl_site426]” to “TATATACACAAACACACACACACATACACCCACATA [CACACA_site8504]”, the “gcPBM binding intensity (ln)” value rises from 8.22 ± 0.65 to 10.2 ± 0.16.

“TATGTAGTCACAAGGTGTACACTTTAACAAATTATG [XGTACX_site8792]” and “TTCTAACTTTTAAACACACAAATATAAATAAGTATA [CACACA_site7473]” are within error of each other in “gcPBM binding intensity (ln)” value: 8.77 ± 0.38 for the first, 8.47 ± 0.36 for the second.

“GAACGTATCATGTGTACACACAAATTGTTTTTTTTT [CACACA_site2020]” and “AAGAATAATAATAAATGTACACAATATTATATATAT [XGTACX_site5525]” are within error of each other in “gcPBM binding intensity (ln)” value: 9.31 ± 0.43 for the first, 8.86 ± 0.4 for the second.

“AAATGAACAAGTGGCACACACACATTATAACTAATT [CACACA_site9048]” and “TATATAATTATAAGAACACACATATATATATATATA [CACACA_site2472]” are within error of each other in “gcPBM binding intensity (ln)” value: 9.43 ± 0.37 for the first, 9.6 ± 0.16 for the second.

“AAATTTGAAGAATATTGTACGCATAATAATTAAATA [XGTACX_site4300]” and “TGTATGAAATATATTACACACATATAAAATCTATAT [CACACA_site6514]” are within error of each other in “gcPBM binding intensity (ln)” value: 8.79 ± 0.46 for the first, 8.96 ± 0.37 for the second.

“TTGATGTTGGTAGGATGTACGGTACCGGTAAAGTTT [XGTACX_site7705]” and “TTTTTAATTTTTTGTTGTACATATAATATATTATTA [XGTACX_site4903]” are within error of each other in “gcPBM binding intensity (ln)” value: 8.85 ± 0.43 for the first, 8.54 ± 0.64 for the second.

“TATATATATATTTTAACACACACATATATATATTTA [CACACA_site8892]” and “ATGCTTTTTAAATGATTGCACTAGATTGTAATATGT [GTGCAC_site9666]” are within error of each other in “gcPBM binding intensity (ln)” value: 9.07 ± 0.26 for the first, 8.84 ± 0.35 for the second.

“ATATATATATATTGCACACACAATTATTATTATTAT [CACACA_site2299]” and “TGTGCTATATTCATATGTACATATAATTATTATATA [XGTACX_site3549]” are within error of each other in “gcPBM binding intensity (ln)” value: 9.41 ± 0.3 for the first, 8.76 ± 0.42 for the second.

“ATAAAATAAAAGTGTACACAAGAAAATATGTTATGT [CACACA_site6033]” and “AAAAATTACCTGACTTGTACATAATTTAAGAACAAT [XGTACX_site6233]” are within error of each other in “gcPBM binding intensity (ln)” value: 9.34 ± 0.44 for the first, 8.72 ± 0.27 for the second.

“GGTATATTAAAATAGGTGCATAAAACTAAGAGAAAA [GTGCAC_site9781]” and “ACGTTTGATACACATAAAGTTTTCCTTTGAATGTAC [CACACA_negctrl_site106]” are within error of each other in “gcPBM binding intensity (ln)” value: 8.9 ± 0.49 for the first, 8.86 ± 0.45 for the second.

“ATAATATATTTATAATGTACATAAGAACAAATTAAA [XGTACX_site1745]” and “AATAATACACAATTTTGTACGTATTTAAAATATATT [XGTACX_site45]” are within error of each other in “gcPBM binding intensity (ln)” value: 8.7 ± 0.43 for the first, 8.73 ± 0.44 for the second.

“AATTAAAAACATTTCACACATAAAAATGAAATATAT [CACACA_site5199]” and TATTTATGAGAAATAGTGCAAAGATATGATCTTTAA are within error of each other in “gcPBM binding intensity (ln)” value: 8.68 ± 0.45 for the first, 8.5 ± 0.45 for the second.

“TAAAATATATAATAATGTACATATTTTTATTTAGGA [XGTACX_site4987]” and “AAATTATAATATAATACACACATAAAAAAAAAATCA [CACACA_site3634]” are within error of each other in “gcPBM binding intensity (ln)” value: 8.41 ± 0.55 for the first, 9 ± 0.44 for the second.

“TATATATATATATATTGTACACATATATATTTACGA [XGTACX_site4791]” and “TGATTCTTTTGTATCACACACACTTAGTTTAATTTT [CACACA_site2404]” are within error of each other in “gcPBM binding intensity (ln)” value: 9.21 ± 0.38 for the first, 9.24 ± 0.62 for the second.

“ATAATAAAAATAAGAGAATAAAAATGCAATTTAATG [CACACA_negctrl_site878]” and “TCCTTTATTTTTAAATGTACAAATATTATCTCCTCA [XGTACX_site5856]” are within error of each other in “gcPBM binding intensity (ln)” value: 8.76 ± 0.48 for the first, 8.58 ± 0.51 for the second.

“ACTTGACACGGACACACACACATATATAAAAAAAAA [CACACA_site4576]” and “TTTTTTTATTATCATGCACACATTTTTTTTTTTTAC [CACACA_site2253]” are within error of each other in “gcPBM binding intensity (ln)” value: 9.53 ± 0.51 for the first, 9.14 ± 0.43 for the second.

“AACTCACATAAATTCACACAAATGTATATTCATATA [CACACA_site4554]” and “ATTGATCGGATAAAATGTACAAATATATATATATAT [XGTACX_site7345]” are within error of each other in “gcPBM binding intensity (ln)” value: 8.73 ± 0.38 for the first, 9.34 ± 0.23 for the second.

“ATTTATAATGTGTATACACACATATATAGATTTGCT [CACACA_site6440]” and “TCTTTTTTTATTTTATTTTTTTTTTTTAAATAATTC [TGCATGCA_negctrl_site372]” are within error of each other in “gcPBM binding intensity (ln)” value: 9.12 ± 0.36 for the first, 8.39 ± 0.47 for the second.

For “CATATTAATATTATGGGTACATATAAATTTACATTC [XGTACX_site687]”, the “gcPBM binding intensity (ln)” value was 8.7 ± 0.46.
